Variants at the background level are over-represented here.
B1: TPR 5TU (parent)
chain: GGAUCUUCUCGAUCUAACAAAAAAGACAAAUCUGCCACAAAGCUUGAGAGCAUCUUCGGAUGCAGAGGCGGCAGCCUUCGGUGGCGCGAUAGCGCCAACGUUCUCAACUAUGACACGCAAAACGCGUGCUCCGUUGAAUGGAGUUUAUCAUG

Variants of: B1
Assay: polymerase ribozyme fitness, log enrichment relative to wild type (log ratio); higher = more active; in vitro selection for triplet polymerase activity
In short: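 Each subunit of a heterodimeric triplet polymerase ribozyme was represented by a PCR-built, transcribed mutant library that underwent triplicate single-round in vitro selection with frozen incubation at −7 °C. Extended constructs were recovered by gel excision, streptavidin-bead capture and RT-PCR, and Illumina sequencing of input and output libraries kept genotypes with ≥10 input reads and ≥1 read per output. Fitness is the logarithm of genotype enrichment relative to wild-type enrichment, from inverse-variance-weighted replicate averages, with a logarithm base of 2.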

Polymerase ribozyme fitness (log ratio), -3.47:
GGCUCGUCUCGAUCUAACAAAAAAUACAAAUCUGCCACAAAGCUUGAGAGCAUCUUCGGAUGCAGAGGCGGCAGCCUUCGGUAGCGCGAUAGCGCCAACGUUCUCAACUAUGACACGCAAAACGCGUGCUCCGUUGAAUGGAGUUUAUCAUG [A3C U6G G25U G83A]

Polymerase ribozyme fitness (log ratio), -3.28:
GGCUCUGCUCGAUUUAACAAAAAAGACAAAUCUGCCACAAAGCUUGAGAGCGUCUUCGGAUGCAGAGGCGGCAGCCUUCGGUGGCGCGAUAGCGCCAACGUUCUCAACUAUGACACGCAAAACGCGUGCUCCGUUGAAUGGAGUUUAUCAUG [A3C U7G C14U A52G]

Polymerase ribozyme fitness (log ratio), ≤ -4.2:
GGCUCAUCUCGAGCUAACAAAAAAGACAAAUCUGCCACAAAGCUUGAGAACAUCUUCGGAUGCAGAGGCGGCAGCUUUCGGUGGCGCGAUAGCGCCAACGUUCUCAACUAUGACACGCAAAACGCGUGCUCCGUUGCAUGCAGUUUAUCAUG [A3C U6A U13G G50A C76U A137C G141C]
GGCUCGUCUCGAUCUAACAAUAAAGACAAAUCUGCCACAAAGCUUGAGAGCAUCUUCGGAUGCAGAGGCGGCAGCCUUCGGUGGCGCGAUGGCGCCAACGUUCUCGACUAUGACACGCAAAACGCGUGCUCCGUUGAAUGGAGUUUAUCAUG [A3C U6G A21U A91G A106G]
GGCUCGUCUCGAUCUAACAAACAAGACACAUCUGCCACAAAGCUUGAGAGCAUCUUCGGAUGCAGAGGCGGCAGCCUUCGGUGGGGCGAUAGUGCCAACGUUCUCAAGUAUGACACGCAAAACGCGUGCUCCGUUGAAUGGAAUUUAUCAUG [A3C U6G A22C A29C C85G C93U C108G G143A]
GGCUCGUCUCGAUCUAACAAAAAAGACAAAUCUGCCACAAAGCUUGAGAGCAUCUUUGGAUGCAGAGGCGGCACCCUUCGGUGGCGCGAUAGCGCCAACGUUCUCAACUAUGACACGCAAAACGCGUGCUCCGUUGAAUGGAGUUUAUUAUG [A3C U6G C57U G74C C149U]
GGCUCUACUUGAUCUAACAAAAAAGACAAAUCUGCCACAAAGCUUGAGAGCAACUUCGGAUGCAGAGGCGGCAGCCUUCGGUGGCGCGAUACCGCCAACGUUCUCAACUAUGACACGCAAAACGCGUGCUCCGUUGAGUGGAGUUUAUCAUG [A3C U7A C10U U53A G92C A138G]
GGCUCUCCUCGAUCUAACAAAAAAGACAAAUCUGCCACAAAGCUUGCGAGCAUCAUCGAAUGCAGAGGCGGCUGCCUUCGGGGGCGCGAUAGCGCCAACGUUCUCAACUAUGACACGCAAAACGCGUGCUCCGUUGAAUGGAGUUCAUCAUG [A3C U7C A47C U55A G59A A73U U82G U146C]
GGCUCUGCUCGAUUUAACGAAAAAGGCAAAUCUGCCACAAAGCUUGAGCGCAUCUUCGGAUGCAGAGGCGGCAGCCUUCGGUGGCGGGAUAGCGCCAACGUUCUCAACUAUGACACGCAAAACGCGUGCUCCGUUGGAUGGAGGUUAUCAUG [A3C U7G C14U A19G A26G A49C C87G A137G U144G]
GGCUCUUCACAAUCUAACAAAAAAGACAAAUCUGGCACAAAGCUUGAGAGCAUCUUCGGAUGCAGAGGCGGCAGACUUCGGUGGCGCGAUAGCGCCAACGUUCUCAACUAUGACACACAAAACGCGUGCUCCGUUGAAUGGAGUCUAUCAUG [A3C U9A G11A C35G C75A G117A U145C]
GGCUCUUCUCGAACUAACAAAAAAGACAAAUCUGCUACAAAGCUUGAGCGCAUCUUCGGAAGCAGAGGCUGCAGCCUUCGGUGGCGCGAUAGCGCGAACGUUCUCAACUACGACACGCAAAACGCGUGCGCCGUUGAAUGGAGUUUAUCAUG [A3C U13A C36U A49C U61A G70U C96G U111C U130G]
GGCUCUUCUCGACCUAACAAAAAAGACAAAUCUGCCACAAAGCUUGAGAGCGUCUUCGGAUGCAGAGGCGGCAGGCUUCGGAGUCGCGAUAAGGCCAACGUUCUCAACUAUGAUACGCAAAACGCGUGCUCCGUUGAAUGGAGUUUAUCAUG [A3C U13C A52G C75G U82A G84U G92A C93G C114U]
GGCUCUUCUCGAGCUAACAAAAUAGACAAAUCUGCCACAAAGCUUGAGAGCAUCUUCGGAUGCAGAGGCGGCAGCCUUCGGUGGCGUGAUUGCGCUAACGUUCUCAACUAUGACACGCAAAACGCGUGCUCCGUUGAAUGGAGUUUAUCAUG [A3C U13G A23U C87U A91U C96U]
GGCUCUUCUCGAGCUAACAAAAAAGACAAAUCUGCCACAAAGCUUGAGAGCAUCUUCGGAUACAGCGGCGGCAGCCUUCGGUGGCGCGAUAGCGCCAACGUUCUCAACUAUGACACGCAAAACGCGUGCUCCGUUGAAUGGAGUAUAUCAUG [A3C U13G G62A A66C U145A]
GGCUCUUCUCGAUCUAACAAAAAAGACAAAACUGCCACAAACCUUGAGAGCAUCUUCGGAUGCAGAGGCGGCAGCUUUCGGUGGCGCGAUAGCGCCAACGUUGUCAACUAUGACACGCAAAACGCGUGCUCCCAUGAAUGGAGUUUAUCAUG [A3C U31A G42C C76U C103G G133C U134A]
GGCUCUUCUCGAUCUAACAAAAAAGACAAAGCUGCCACAAAGCUUGAGAGCCUCUACGGAGGCAGAGGCGGCAGCCUUCGGUGGCGCGAUCGCGCCAACGUUCUCAAGUAUGUCACGCAAAACGCGUGCUCCGUUGAAUGGAGUUUAUCAUG [A3C U31G A52C U56A U61G A91C C108G A113U]
GGCUCUUCUCGAUCUAACAAAAAAGACAAAGCUGCCACAAAGCUUGAGAGUAUCUUCGGCUGCAGAGGCGGCAGCCUUCGGUGGCGCGAUAGCGCCAACGUUCUCAACUAUGACACGCAAACCGCGUGCUCCGUUGAAUAGAGUUUAUCAUG [A3C U31G C51U A60C A122C G140A]
GGCUCUUCUCGAUCUAACAAAAAAGACAAAGCUGCCACAAAGCUUGAGAGCAUCUUCGGAUGCAGAGGAGGCAGCCUUCGGUGGGGCGAUAGCGCCAACGUUCUCAACUAUGACACGCAAAACGCGUGCUCCGUUGAAUGUAGUUUAUCAUG [A3C U31G C69A C85G G141U]

Polymerase ribozyme fitness (log ratio), -1.71:
GGCUCUUCUCGAUCAAACUAAAAAGACAAAUCUGCCACAAAGCUUGAGAGCAUCUUCGGAUGCAGAGGCGGCAGUCUUCGGUGGCGUGAUAGCGCCAACGUUCUCAACUAUGACACGCAAAACGCGUGCUCCGUUGAAUGGAGUUUAUCAUG [A3C U15A A19U C75U C87U]

— the RNAGym collection of RNA variant scans (doi:10.1073/pnas.2313332121)
